Assay results taken from the supplement of paper PMC10037445.
The full ranking holds about 2,900 compounds; the median of “NF-kB SEAP reporter activity, fold change vs agonist alone” is about 0.99, and the highest 2% start at about 2.6. This is one part of the list.

How the values were obtained:
[1] = test system: RAW-Dual; experiment: NF-kB SEAP reporter activity, fold change vs agonist alone; cytotoxicity flag (confluency mask): not cytotoxic; higher = enhanced NF-kB activity
Outline: (§1)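 Supernatant from RAW-Dual macrophages was read after 20 hours for IRF by QuantiLuc luminescence and for NF-κB by QuantiBlue absorbance at 620 nm. The cells (50,000 cells/well in DMEM, 384-well plates, 37 °C, 5% CO2) had received 50 nL of library stock by pin tool and, 1 h later, a PRR agonist. Reporter activity is expressed relative to agonist-alone wells as fold change, and wells were flagged cytotoxic if IncuCyte confluency was under 70% of agonist controls in both mask sets.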

[2] = test system: RAW-Dual; experiment: NF-kB SEAP reporter activity, fold change vs agonist alone; higher = enhanced NF-kB activity; conditions: library stock concentration (final ~1000-fold dilution): 10 mM
Outline: as §1

[3] = test system: RAW-Dual; experiment: NF-kB SEAP reporter activity, fold change vs agonist alone; cytotoxicity flag (confluency mask): cytotoxic (confluency <70% of control); higher = enhanced NF-kB activity
Outline: as §1

[4] = agonist: ODN 1826 (TLR9) 0.5 ug/mL
[5] = agonist: Pam2CSK4 (TLR2/6) 0.1 ug/mL
[6] = agonist: Pam3CSK4 (TLR2/1) 0.1 ug/mL
[7] = cytotoxicity flag (confluency mask): not cytotoxic, agonist: Imiquimod (TLR7) […]
[8] = cytotoxicity flag (confluency mask): not cytotoxic, agonist: MPLA (TLR4) […]

How did the “NF-kB SEAP reporter activity” value ([1]; agonist: LPS (TLR4) 0.1 ug/mL) turn out when `Fc1ccc2[nH]ccc2c1-c1nc(N2CCOCC2)c2sc(CN3CCN(CC4CC4)CC3)cc2n1` (library stock concentration (final ~1000-fold dilution): 10 mM) was run?
The value was 2.9.

And the “NF-kB SEAP reporter activity” value [1, 4]?
The value was 0.272.

And the “NF-kB SEAP reporter activity” value [1, 5]?
Its value is 1.03.

And the “NF-kB SEAP reporter activity” value [1, 6]?
Its value is 0.935.

What does the source list for `Fc1ccc2[nH]ccc2c1-c1nc(N2CCOCC2)c2sc(CN3CCN(CC4CC4)CC3)cc2n1`?
NF-kB SEAP reporter activity [2, 7]: 0.944; NF-kB SEAP reporter activity [2, 8]: 1.25

`Cc1ccc(NC(=O)Nc2cc(C(F)(F)F)ccc2F)cc1Nc1ccc2c(c1)NC(=O)/C2=C\c1ccc[nH]1` (library stock concentration (final ~1000-fold dilution): 10 mM) was tested. Which “NF-kB SEAP reporter activity” value ([1]; agonist: LPS (TLR4) 0.1 ug/mL) did it give?
Its value is 0.677.

And the “NF-kB SEAP reporter activity” value [1, 4]?
Its value is 0.817.

And the “NF-kB SEAP reporter activity” value [1, 5]?
Its value is 0.337.

What about the “NF-kB SEAP reporter activity” value [1, 6] of the same compound?
The value was 0.197.

With `Cc1ccc(NC(=O)Nc2cc(C(F)(F)F)ccc2F)cc1Nc1ccc2c(c1)NC(=O)/C2=C\c1ccc[nH]1` as the compound, how does the “NF-kB SEAP reporter activity” value [2, 7] read?
The value was 0.943.

What about the “NF-kB SEAP reporter activity” value [2, 8] of the same compound?
Its value is 0.689.

For `CNC(=O)c1ccccc1Sc1ccc2c(/C=C/c3ccccn3)n[nH]c2c1` (library stock concentration (final ~1000-fold dilution): 10 mM), which “NF-kB SEAP reporter activity” value ([1]; agonist: LPS (TLR4) 0.1 ug/mL) is on record?
The value was 0.907.

And the “NF-kB SEAP reporter activity” value [1, 4]?
Its value is 0.847.

What about the “NF-kB SEAP reporter activity” value [1, 5] of the same compound?
The value was 0.774.

What about the “NF-kB SEAP reporter activity” value [1, 6] of the same compound?
Its value is 0.757.

`CNC(=O)c1ccccc1Sc1ccc2c(/C=C/c3ccccn3)n[nH]c2c1` was tested. Which “NF-kB SEAP reporter activity” value [2, 7] did it give?
The value was 0.538.

And the “NF-kB SEAP reporter activity” value [2, 8]?
Its value is 1.04.

With `S=C=Nc1cccc(NC(=S)NCCCCNC(=S)Nc2cccc(N=C=S)c2)c1` (library stock concentration (final ~1000-fold dilution): 10 mM) as the compound, how does the “NF-kB SEAP reporter activity” value ([1]; agonist: LPS (TLR4) 0.1 ug/mL) read?
Its value is 1.33.

And the “NF-kB SEAP reporter activity” value [1, 4]?
The value was 0.977.

And the “NF-kB SEAP reporter activity” value [1, 5]?
The value was 1.02.

What about the “NF-kB SEAP reporter activity” value [1, 6] of the same compound?
The value was 0.977.

Which results are given for `S=C=Nc1cccc(NC(=S)NCCCCNC(=S)Nc2cccc(N=C=S)c2)c1`?
NF-kB SEAP reporter activity [2, 7]: 1.22; NF-kB SEAP reporter activity [2, 8]: 1.1

Which “NF-kB SEAP reporter activity” value ([1]; agonist: LPS (TLR4) 0.1 ug/mL) does the source give for `CCOc1cc(N2CCC(O)CC2)ccc1Nc1ncc2c(n1)N(C)c1ccccc1C(=O)N2C` (library stock concentration (final ~1000-fold dilution): 10 mM) here?
The value was 3.72.

For `O=C1c2ccccc2-c2n[nH]c3cccc1c23`, which “NF-kB SEAP reporter activity” value [2, 7] is on record?
The value was 0.337.

And the “NF-kB SEAP reporter activity” value [2, 8]?
The value was 0.837.

How did the “NF-kB SEAP reporter activity” value ([1]; agonist: LPS (TLR4) 0.1 ug/mL) turn out when `O=C1c2ccccc2-c2n[nH]c3cccc1c23` (library stock concentration (final ~1000-fold dilution): 10 mM) was run?
The value was 0.376.

And the “NF-kB SEAP reporter activity” value [1, 4]?
Its value is 0.316.

And the “NF-kB SEAP reporter activity” value [1, 5]?
The value was 0.149.

And the “NF-kB SEAP reporter activity” value [1, 6]?
The value was 0.192.

With `CC(C)CC(NC(=O)CNC(=O)c1cc(Cl)ccc1Cl)B(O)O` (configuration not stated) as the compound, how does the “NF-kB SEAP reporter activity” value [2, 7] read?
The value was 0.894.

And the “NF-kB SEAP reporter activity” value [2, 8]?
Its value is 0.931.

How did the “NF-kB SEAP reporter activity” value ([1]; agonist: LPS (TLR4) 0.1 ug/mL) turn out when `CC(C)CC(NC(=O)CNC(=O)c1cc(Cl)ccc1Cl)B(O)O` (configuration not stated) (library stock concentration (final ~1000-fold dilution): 10 mM) was run?
Its value is 0.683.

And the “NF-kB SEAP reporter activity” value [1, 4]?
The value was 0.942.

What about the “NF-kB SEAP reporter activity” value [1, 5] of the same compound?
The value was 1.07.

What about the “NF-kB SEAP reporter activity” value [1, 6] of the same compound?
The value was 0.768.

`CNC(=O)c1ccc(N2C(=S)N(c3cnc(C#N)c(C(F)(F)F)c3)C(=O)C23CCC3)cc1F` (library stock concentration (final ~1000-fold dilution): 10 mM) was tested. Which “NF-kB SEAP reporter activity” value ([1]; agonist: LPS (TLR4) 0.1 ug/mL) did it give?
Its value is 0.895.

What about the “NF-kB SEAP reporter activity” value [1, 4] of the same compound?
Its value is 1.

And the “NF-kB SEAP reporter activity” value [1, 5]?
Its value is 0.884.

What about the “NF-kB SEAP reporter activity” value [1, 6] of the same compound?
Its value is 1.13.

How did the “NF-kB SEAP reporter activity” value [2, 7] turn out when `CNC(=O)c1ccc(N2C(=S)N(c3cnc(C#N)c(C(F)(F)F)c3)C(=O)C23CCC3)cc1F` was run?
Its value is 0.992.

What about the “NF-kB SEAP reporter activity” value [2, 8] of the same compound?
Its value is 0.953.

How did the “NF-kB SEAP reporter activity” value ([1]; agonist: LPS (TLR4) 0.1 ug/mL) turn out when `Cl.N=c1ccn2c(n1)OC1C(O)C(CO)OC12` (configuration not stated) (library stock concentration (final ~1000-fold dilution): 10 mM) was run?
The value was 1.33.

And the “NF-kB SEAP reporter activity” value [1, 4]?
The value was 1.89.

What about the “NF-kB SEAP reporter activity” value [1, 5] of the same compound?
The value was 1.4.

What about the “NF-kB SEAP reporter activity” value [1, 6] of the same compound?
The value was 1.83.

With `Cl.N=c1ccn2c(n1)OC1C(O)C(CO)OC12` (configuration not stated) as the compound, how does the “NF-kB SEAP reporter activity” value [2, 7] read?
Its value is 1.8.

What about the “NF-kB SEAP reporter activity” value [2, 8] of the same compound?
Its value is 1.42.

Which “NF-kB SEAP reporter activity” value [2, 7] does the source give for `C[C@@H]1O[C@@H](O[C@@H]2[C@@H](O)[C@H](OCCc3ccc(O)c(O)c3)O[C@H](CO[C@@H]3O[C@H](CO)[C@@H](O)[C@H](O)[C@H]3O)[C@H]2OC(=O)/C=C/c2ccc(O)c(O)c2)[C@H](O)[C@H](O)[C@H]1O` here?
The value was 0.893.

What about the “NF-kB SEAP reporter activity” value [2, 8] of the same compound?
Its value is 0.966.

How did the “NF-kB SEAP reporter activity” value ([1]; agonist: LPS (TLR4) 0.1 ug/mL) turn out when `C[C@@H]1O[C@@H](O[C@@H]2[C@@H](O)[C@H](OCCc3ccc(O)c(O)c3)O[C@H](CO[C@@H]3O[C@H](CO)[C@@H](O)[C@H](O)[C@H]3O)[C@H]2OC(=O)/C=C/c2ccc(O)c(O)c2)[C@H](O)[C@H](O)[C@H]1O` (library stock concentration (final ~1000-fold dilution): 10 mM) was run?
The value was 1.05.

What about the “NF-kB SEAP reporter activity” value [1, 4] of the same compound?
Its value is 1.03.

What about the “NF-kB SEAP reporter activity” value [1, 5] of the same compound?
The value was 1.04.

And the “NF-kB SEAP reporter activity” value [1, 6]?
Its value is 0.936.

Which results are given for `CN1CCN(c2ccc(C(=O)Nc3n[nH]c4ccc(Cc5cc(F)cc(F)c5)cc34)c(NC3CCOCC3)c2)CC1`?
NF-kB SEAP reporter activity ([2]; cytotoxicity flag (confluency mask): cytotoxic (confluency <70% of control), agonist: Imiquimod (TLR7) […]): 0.608; NF-kB SEAP reporter activity ([2]; cytotoxicity flag (confluency mask): cytotoxic (confluency <70% of control), agonist: MPLA (TLR4) […]): 0.545

With `CN1CCN(c2ccc(C(=O)Nc3n[nH]c4ccc(Cc5cc(F)cc(F)c5)cc34)c(NC3CCOCC3)c2)CC1` (library stock concentration (final ~1000-fold dilution): 10 mM) as the compound, how does the “NF-kB SEAP reporter activity” value ([3]; agonist: LPS (TLR4) 0.1 ug/mL) read?
Its value is 0.334.

And the “NF-kB SEAP reporter activity” value [3, 4]?
Its value is 0.21.

What about the “NF-kB SEAP reporter activity” value [3, 5] of the same compound?
The value was 0.225.

And the “NF-kB SEAP reporter activity” value [3, 6]?
The value was 0.141.

Which “NF-kB SEAP reporter activity” value ([1]; agonist: LPS (TLR4) 0.1 ug/mL) does the source give for `Cc1nc(Nc2ccc(F)cc2)nc(N2CCc3ccccc3C2C)c1C.Cl` (configuration not stated) (library stock concentration (final ~1000-fold dilution): 10 mM) here?
The value was 1.09.

What about the “NF-kB SEAP reporter activity” value [1, 4] of the same compound?
The value was 1.17.

What about the “NF-kB SEAP reporter activity” value [1, 5] of the same compound?
The value was 0.533.

And the “NF-kB SEAP reporter activity” value [1, 6]?
The value was 0.376.

`Cc1nc(Nc2ccc(F)cc2)nc(N2CCc3ccccc3C2C)c1C.Cl` (configuration not stated) was tested. Which “NF-kB SEAP reporter activity” value [2, 8] did it give?
The value was 1.23.

Which results are given for `CN1C(=N)NC(C)(c2cc(NC(=O)c3ccc(F)cn3)ccc2F)CS1(=O)=O.O=C(O)C(F)(F)F` (configuration not stated) (library stock concentration (final ~1000-fold dilution): 10 mM)?
NF-kB SEAP reporter activity ([1]; agonist: LPS (TLR4) 0.1 ug/mL): 0.826; NF-kB SEAP reporter activity [1, 4]: 0.731; NF-kB SEAP reporter activity [1, 5]: 0.823; NF-kB SEAP reporter activity [1, 6]: 0.856

Which results are given for `CN1C(=N)NC(C)(c2cc(NC(=O)c3ccc(F)cn3)ccc2F)CS1(=O)=O.O=C(O)C(F)(F)F` (configuration not stated)?
NF-kB SEAP reporter activity [2, 7]: 0.873; NF-kB SEAP reporter activity [2, 8]: 0.781
